Measured values published in PubChem BioAssay AID1745853 (National Center for Advancing Translational Sciences (NCATS), 2022).
“And” between values parts separate entries of the source, which are not always exact repeats. Equal entries are not always repeated. The list shows a part of the results. Further columns of the screen follow, without active or inactive calls.

Columns and labels:
Experiment in all cases: Primary Screen for Target Class Profiling of Small Molecule Inhibitors of Methyltransferases
[1] = biological target: Glycine N-methyltransferase (Homo sapiens) (UniProt Q14749); conditions: purified enzyme, MTase-Glo SAH luminescence; measured here: GNMT inhibition; at 40 µM; stronger effect = lower value
Procedure, shortened: (§1)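 Each enzyme was assayed with SAM and its substrate. SAH formation detected by MTase-Glo luminescence; single-point 40 uM screen[…].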

[2] = biological target: Guanidinoacetate N-methyltransferase (Homo sapiens) (UniProt Q14353); conditions: purified enzyme, MTase-Glo SAH luminescence; measured here: GAMT inhibition; at 40 µM; stronger effect = lower value
Procedure, shortened: as §1

[3] = biological target: Histamine N-methyltransferase (Homo sapiens) (UniProt P50135); conditions: purified enzyme, MTase-Glo SAH luminescence; measured here: HNMT inhibition; at 40 µM; stronger effect = lower value
Procedure, shortened: as §1

[4] = biological target: Nicotinamide N-methyltransferase (Homo sapiens) (UniProt P40261); conditions: purified enzyme, MTase-Glo SAH luminescence; measured here: NNMT inhibition; at 40 µM; stronger effect = lower value
Procedure, shortened: as §1

[5] = biological target: Phenylethanolamine N-methyltransferase (Homo sapiens) (UniProt P11086); conditions: purified enzyme, MTase-Glo SAH luminescence; measured here: PNMT inhibition; at 40 µM; stronger effect = lower value
Procedure, shortened: as §1
On the % scale 0 is the no-effect control and ±100 the full control effect.

Compound | activity change, negative = inhibition [1] | activity change, negative = inhibition [2] | activity change, negative = inhibition [3] | activity change, negative = inhibition [4] | activity change, negative = inhibition [5]
CC1=CC(=O)CC(C)(C)[C@@]1(O)/C=C/C(C)O[C@@H]1O[C@H](CO)[C@@H](O)[C@H](O)[C@H]1O (stereo partly drawn) | 3.65% | 10.6% | 12.1% | -2.18% | 8.86%
Cc1cc(N2CCN(Cc3nnc(C4CC(N)C4)n3C)CC2)cc(C)n1 (stereo not drawn) | -5.34% | -9.9% | -15% | -7.05% | -7.59%
COc1ccccc1-c1nnc2ccc(C(=O)N3CCN(C(C)=O)CC3)cn12 | -3.17% | -5.85% | 0.13% | -7.85% | -6.43%
CCCS(=O)(=O)N1CC(Oc2ccccc2-c2noc(C)n2)C1 | -5.61% | -0.6% | -1.44% | -0.086% | -1.47%
C[C@@H]1C[C@@H](O)[C@@]23CO[C@]2(CO)CCC[C@@H]3[C@@]12C[C@@H](c1ccoc1)OC2=O | -0.702% | 0.045% | -5.57% | -14.9% | 1.33%
CCOc1c2c(c(OCC)c3ccccc13)C(=O)N(c1ccc(CC(=O)NS(=O)(=O)c3ccccc3)cc1)C2 | -16.5% | 0.933% | 9.01% | -25.6% | -9.98%
CCCN1C(=O)c2c(C(=O)N(C)Cc3ccccc3)ncn2CC1(C)C(=O)NCc1ccc(C)cc1 (stereo not drawn) | -1.33% | 0% | 4.09% | 3.34% | 3.25%
CCC(C)NC(=O)c1ccc2c(=O)n(CCC(C)C)c3nn(Cc4ccccc4F)c(=O)n3c2c1 (stereo not drawn) | -10.1% | 0.223% | -2.87% | -13.5% | -5.46%
CCCCc1nc(Cl)c(CO)n1Cc1ccc(-c2ccccc2-c2nn[nH]n2)cc1 |  | -2.38% |  | -21.9% | 2.09%
CCc1ccc(N2C(=O)c3cc(-c4ccc(OC)cc4)nn3CC2(C)C(=O)NCc2ccccc2)cc1 (stereo not drawn) | 3.2% | 0% | 6.04% | 4.25% | -1.69%
CC(C)Cn1c(=O)c2ccccc2n2c(-c3ccc(Br)cc3)nnc12 | 0.282% | 0% | 2.45% | 0.73% | -4.23%
Cc1ccc(C(C(=O)NCc2c(C)n[nH]c2C)N(C)C)cc1 (stereo not drawn) | -5.16% | -2.61% | -1.92% | -7.27% | -1.2%
CCOc1ccccc1CN1C(=O)c2nc3ccccc3n2CC1(C)C(=O)NC1CCCC1 (stereo not drawn) | -0.113% | 4.75% | 0.471% | 0.299% | -3.99%
CN1C2CC(OC(=O)[C@H](CO)c3ccccc3)CC1C1OC12 (stereo partly drawn) | 5.93% | 12.7% | 6.24% | -1.45% | 8.7%
COC(=O)C1=CO[C@@H](O[C@@H]2O[C@H](CO)[C@@H](O)[C@H](O)[C@H]2O)[C@@H]2[C@@H](C)[C@@H](O)C[C@H]12 | 2.64% | 2.96% and 7.42% | 9.09% | -7.8% and -6.84% | 0.459% and 7.92%
O=C(CCc1nnc2n(Cc3ccc(F)cc3)c(=O)c3ccccc3n12)N1CCN(c2cccc(Cl)c2)CC1 | 1.04% | 0% | 6.1% | 1.17% | -1.53%
CCOC(=O)C1CCCN(C(=O)C2CC(c3ccc(CC)cc3)CN(C(C)=O)C2)C1 (stereo not drawn) | -5.45% | 0.813% | 1.35% | -3.55% | 0.573%
CC[C@H]1CN(S(=O)(=O)c2ccc(OC)cc2)CC[C@H]1CC(=O)NCc1cccnc1 | -4.51% | -1.92% | -1.08% | 3.62% | -1.74%
Cc1cccc(-c2[nH]c(Cc3cccc(C(N)=O)c3)nc2-c2ccc3nccnc3c2)n1 | -1.02% | -3.54% | 4.91% | -34.5% | 0.929%
COc1ccc(-c2cc3n(n2)CC(C)(C(=O)NCc2ccccc2OC)N(Cc2ccccc2)C3=O)cc1 (stereo not drawn) | 5.11% | 0% | 5.67% | 7.13% | 2.12%
O=c1oc(Cl)c(Cl)c2ccccc12 | -5.05% | 8.31% | 3.85% | -4.67% | 5.27%
CC(C)c1ccc(CNC(=O)c2ccc3c(=O)nc4c(-c5ccccc5)n[nH]n4c3c2)cc1 | -3.54% | 0.569% | -6.56% | -2.99% | -1.2%
COc1ccc(-c2n[nH]n3c2nc(=O)c2ccc(C(=O)NC4CC4)cc23)cc1 | -1.49% | 3.92% | 4.56% | 3.58% | -0.884%
Cc1ccc(N2CCN(C(=O)c3noc(-c4ccc[nH]c4=O)n3)CC2)cc1 | -9.51% | -2.8% | 0.793% | -5.2% | 0.012%
O=C(Nc1cccc(Cl)c1)[C@@H]1C[C@H](c2ccc(F)cc2)N([S+](=O)([O-])C2CC2)C1 | -12.2% | -0.575% | -3.48% | -7.05% | -1.42%
O=C(/C=C/c1ccc(O)cc1)OC[C@H]1O[C@@H](O/C(=C\c2ccccc2)C(=O)O)[C@H](O)[C@@H](O)[C@@H]1O | 2.29% | 7.7% | 6.98% | -5.81% | 7.1%
COc1ccc(F)cc1S(=O)(=O)N1C[C@@H](C(N)=O)[C@H](C2CCN(C)CC2)C1 | -1.02% | -4.29% | -5.51% | -10.6% | 1.34%
CCC(C)NC(=O)c1ccc2c(=O)n(C)c3nn(Cc4ccc(N5CCCC5=O)cc4)c(=O)n3c2c1 (stereo not drawn) | 4.35% | 0.412% | 1.96% | 2.56% | 6.57%
CC(C)CCNC(=O)C1(C)Cn2c(ccc2-c2ccco2)C(=O)N1Cc1ccc(Cl)cc1 (stereo not drawn) | -3.46% | 0% | 7% | -2.46% | 1.61%
